# Over roughly 33,000 sequences, “E-score (-0.5 to 0.5)” has its median near -0.013; the highest 2% begin near 0.3. This is one part of the list.
# Molecular target: T1, Msn1 (UniProt P22148)
# T1 sequence: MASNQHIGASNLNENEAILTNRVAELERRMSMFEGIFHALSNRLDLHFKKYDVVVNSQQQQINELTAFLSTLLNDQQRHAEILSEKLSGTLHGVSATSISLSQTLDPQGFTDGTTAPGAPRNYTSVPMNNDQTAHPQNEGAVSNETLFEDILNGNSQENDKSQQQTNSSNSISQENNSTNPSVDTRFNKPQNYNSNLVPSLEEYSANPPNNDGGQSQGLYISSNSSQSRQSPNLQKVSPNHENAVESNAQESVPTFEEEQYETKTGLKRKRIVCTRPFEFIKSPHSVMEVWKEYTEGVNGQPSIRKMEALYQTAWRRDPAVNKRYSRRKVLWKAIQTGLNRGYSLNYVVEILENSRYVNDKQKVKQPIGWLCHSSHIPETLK
# Assay: PBM E-score (8-mer binding enrichment) (E-score (-0.5 to 0.5)); higher = stronger / more preferred TF binding; most listed sequences are background and not binding sites
# Settings: protein concentration: 200 nM; construct: GST-full length
# Procedure, shortened: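 The E-score, a modified Wilcoxon-Mann-Whitney statistic, was computed by the Universal PBM Analysis Suite for every ungapped eight-base word pooled with its reverse complement. Scans behind it were normalised with masliner after bound GST-tagged yeast transcription factors were detected with fluorescent anti-GST. The proteins, at about 100-200 nM, had been applied to universal all-10-mer Agilent arrays made double-stranded by primer extension.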
row,Sequence,PBM E-score
1,GACACTGA,0.223
2,CCTTGAAC,-0.122
3,ACCAATCC,0.00725
4,GAGTGTAC,-0.199
5,GTAGCACA,-0.172
6,GGTAAGAC,0.0472
7,CTCAAATA,0.00541
8,ACAAGGCC,-0.137
9,CTGATTTA,0.0526
10,AGCTGGAT,-0.163
11,CTTATACA,0.0393
12,AGCGTACA,0.0198
13,ATCATGGG,-0.0733
14,AGAAGTTA,-0.0397
15,CCCCCGAG,-0.363
16,AGGCCCGG,-0.194
17,GATGATAA,0.0631
18,ATTCAAGG,-0.0593
19,AACTGAGA,0.0195
20,CACAAGCA,-0.0283
21,GGGCAACA,-0.0223
22,ACCAGCGT,-0.0578
23,CCCAATCG,-0.0543
24,AAAAGGTG,-0.144
25,ATACTAGG,0.0366

row,Sequence,PBM E-score
1,AAGGGCCC,-0.269
2,ATCACGCG,0.148
3,GAATGGCA,0.0355
4,CAGGAGGA,-0.103
5,ATCTCGAC,0.0583
6,CGCAGATA,0.0558
7,ACGAGCGA,0.0188
8,GACTACAA,-0.011
9,ACAAAAAC,0.319
10,GAACATAC,0.193
11,GGCAACAC,-0.0261
12,AGGCAGTA,-0.091
13,TAACGAAA,0.194
14,TCCGTACA,0.214
15,GTATCTAA,0.211
16,ATAATCGG,0.185
17,GCGGAAAC,-0.117
18,CCTTGTTA,-0.0123
19,ATACCATC,-0.00044
20,ATCTGATG,0.00794
21,AGTCGTTA,-0.128
22,CGTCCCCC,-0.436
23,ACGGTGTA,0.0353
24,GCGCACAA,0.0735
25,AAGAATAT,-0.00205

row,Sequence,PBM E-score
1,CTAGTTGC,-0.0643
2,ACTCCTCG,-0.00289
3,ACAGTGCG,-0.181
4,GAGCGATA,0.0782
5,GTGCGCCA,-0.195
6,TGGCTAAA,0.102
7,GTAAAAAA,0.178
8,TGTCATAA,0.397
9,GCGACTCC,-0.182
10,ATTCCTAA,0.0942
11,CTCTGCAA,-0.0609
12,AAACGAAG,0.00996
13,CGACGTTC,-0.281
14,GATCAAAA,0.133
15,ATAAGGCC,-0.0554
16,AGATGGGA,-0.126
17,AGTCGATA,-0.0618
18,AGCAATGC,-0.0793
19,AGACAGAT,0.187
20,AACTCTTG,0.0893
21,AACACGGC,-0.14
22,AGTCTGGG,-0.183
23,CGTCTCTC,0.0263
24,ACCGGTTG,-0.0618
25,ACTCTTCA,-0.0242

row,Sequence,PBM E-score
1,CACTAATG,-0.0828
2,ACCAGTCT,-0.194
3,ACTCCCCC,-0.294
4,ACTTGAAC,0.101
5,AAGTATAC,0.112
6,GTGACGCA,0.0454
7,ACGTCTGG,0.154
8,ATTATGTA,0.149
9,ATCTTAGA,0.179
10,GTCGAATA,0.0273
11,CATAATGG,-0.169
12,CACAGCGA,0.12
13,CCGTTACC,-0.0239
14,AGACGGAG,-0.201
15,ATACGCTA,-0.139
16,GATATGAA,0.13
17,GCGTCGCC,-0.0704
18,CAATTGCC,-0.0132
19,CACCGCCA,-0.0657
20,CTCCAACC,-0.00536
21,ATGCCCAC,0.0757
22,CGGTTCTA,0.0533
23,ACAAATCA,0.266
24,AGAGATGG,0.00215
25,GTGATAAC,0.0279

row,Sequence,PBM E-score
1,TAGAGAGA,-0.0195
2,CCCCAGGG,-0.401
3,GGATCACA,0.0719
4,GAACGATA,-0.135
5,ACATGAGC,-0.0323
6,AGTAACAG,0.0866
7,GACGAATC,0.161
8,AAGCCCGG,0.163
9,CGCTCATA,-0.217
10,AGATACCC,0.0501
11,AAACCCTA,-0.0892
12,CAGACCCC,-0.258
13,ACCTCTGG,-0.217
14,CTCGAAAA,0.0117
15,CAAAAACG,0.121
16,CAACCAAG,0.0196
17,CGGGGGCA,-0.318
18,CAACGACA,0.307
19,CCTTAGTA,0.0209
20,CAGACCTA,-0.0743
21,AACTCCGC,-0.259
22,ATCATGCG,-0.0522
23,CGCAAGGC,-0.225
24,ATCCTACA,-0.189
25,CGGAGCAC,0.0322

row,Sequence,PBM E-score
1,ATTCAAAG,-0.0143
2,ACGGGGAG,-0.165
3,CGTAACAG,-0.00261
4,CGCGGGTC,0.0184
5,CACCGAAG,0.117
6,ATGATCCC,-0.0156
7,GATAAATA,0.165
8,TGGTTGAA,-0.0117
9,GGCTAAAC,-0.052
10,GGGCGCAA,-0.0566
11,GGATTATA,0.109
12,AACGTCAC,-0.0115
13,AGTTCGAG,0.0807
14,AAATTCAC,-0.0266
15,CTGATGTA,0.112
16,TCAATGCA,-0.176
17,AGCGAATA,0.0725
18,AAATGTGT,0.292
19,AGACGTCT,-0.0109
20,AACTGTAC,-0.121
21,GTGAATCA,-0.074
22,GTTATACA,0.175
23,CCGGCCCC,-0.378
24,ACCTTGAG,-0.0236
25,ACCAGGGT,-0.268

row,Sequence,PBM E-score
1,CAGAATGG,0.0269
2,GGGTAAAC,0.00687
3,GAACAGTA,0.0356
4,GGCACTTA,-0.142
5,AAATAGGG,-0.0637
6,AGTCTTAG,0.0186
7,CAGTTAGG,-0.00482
8,GGTACCGA,-0.172
9,CACAGCTG,-0.0312
10,ATTGTACC,0.237
11,CTCACGGC,-0.173
12,TACGCCGA,-0.0266
13,AAGCGGGG,-0.1
14,CGTTTAAG,-0.0492
15,ACGCAGGG,-0.0636
16,AACCATCG,0.16
17,AGCTCAGC,-0.188
18,GAAAAACC,0.0972
19,AAATTTAC,0.233
20,CTCGGTGC,-0.156
21,CGCACTGC,-0.0396
22,ATAACCCC,-0.105

# — the supplement of paper PMC3334620
